From PubChem BioAssay AID2546 (National Center for Advancing Translational Sciences (NCATS), 2010)
The whole screen tested about 310,000 compounds, of which about 11,000 (3.5%) were called active. The inconclusive results got no clear call from the source; some entries with a clear call stand among them for comparison. Calls follow the shape of the dose curve; as a rule, active = well fitted inhibition curve with a large enough effect; inconclusive = small, poorly fitted or top-dose-only effect, or effect the other way; inactive = flat fitted curve, though single readings scatter. No potency is given beside an inconclusive call; the fits are too rough.

Test: VP16 counterscreen qHTS for inhibitors of ROR gamma transcriptional activity;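 also: Gal4-VP16 expression switched on by copper sulfate through the metallothionein promoter; nearly all actives have a fitted effect of over 50% in size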
Settings: Drosophila S2 Gal4-VP16 UAS-luciferase, luminescence, 20 h; series mostly up to 53.6 µM
Potency is read from the fitted curve at half-maximal effect; tags tell the direction and shape of the fitted curve.

Structure (SMILES) | Potency
COc1ccc(CN(C)C(=S)Nc2ccc(Cl)cc2)cc1 | inconclusive [inhibitor, single point]
CCOc1ccc(NC(=O)C(C)NS(=O)(=O)c2ccc(NC(C)=O)cc2)cc1 (centres undefined) | inactive
CN(C(=S)NC(=O)c1ccc(F)cc1)C1CCCCC1 | active: 1.12 µM
CCOC(=O)/C(C#N)=C\c1ccc(CC)s1 | inconclusive [inhibitor, single point]
Cc1cccc(OCCn2c(=S)[nH]c3ccccc32)c1 | active: 1.58 µM
COc1ccccc1C(=O)O/N=C(\N)c1ccc(Cl)cc1 | inconclusive [inhibitor, single point]
N/C(Cc1ccc([N+](=O)[O-])cc1)=N\OC(=O)Cc1ccccc1 | inconclusive [inhibitor, partial curve]
O=C(CCCCCn1c(=S)[nH]c2ccc(N3CCOCC3)cc2c1=O)NC1CCN(Cc2ccccc2)CC1 | inconclusive [inhibitor, single point]
Cc1nn(-c2ccc(F)cc2)c(C)c1CN1CCN(CCC(C)C)C(CCO)C1 (centres undefined) | inactive
ClCc1nc2ccccc2c2ccccc12 | inconclusive [inhibitor, single point]
O=C(/C=C/c1ccco1)NC(=S)Nc1ccccc1N1CCCC1 | inconclusive [inhibitor, partial curve, poor fit]
CC(C)CNC(=O)CCc1nc(-c2ccccc2)no1 | inactive
Cc1cc(C)nc(SCC(=O)c2ccc(O)c(O)c2)n1 | inconclusive [inhibitor, single point]
CCOC(=O)c1c(N/N=C/c2ccncc2)n[nH]c1C | inactive
CC1(C)Cc2ccccc2C2=NNC(=O)C2=N1 | inconclusive [inhibitor, single point]
N#Cc1ccc(-c2csc(NC(=O)c3ccc(S(=O)(=O)N4CCc5ccccc5C4)cc3)n2)cc1 | inactive
CCOc1ccc(CN(C)C(=O)Cc2c[nH]c3ccccc23)cc1 | inactive
Cc1cccc(NC(=O)COc2cccc3c2CCN(C)C3=O)c1C | inconclusive [inhibitor, single point]
CCn1c(SCC(=O)Nc2ccc(N3CCOCC3)cc2)nnc1-c1ccc(OC)cc1 | inconclusive [inhibitor, single point]
COc1cc(/C=C/c2ccc3cccc(OC)c3n2)c(OC(C)=O)c([N+](=O)[O-])c1 | inconclusive [inhibitor, single point]
CN(C)S(=O)(=O)c1cccc(NC(=O)COc2ccc(C(=O)c3ccccc3)cc2)c1 | inconclusive [inhibitor, single point]
O=S(=O)(c1ccc(-c2ccno2)s1)N1CCCCC1 | inconclusive [activator, single point]
CCOc1ccccc1NC(=S)NC(=O)CCCOc1ccc(Cl)cc1Cl | active: 22.4 µM
COc1ccc(C2OC3=C(Nc4cc(C)c(C)cc4N3)C2=O)cc1 (centres undefined) | inconclusive [activator, full curve, poor fit]
N#C/C(=N\Nc1c(Cl)cccc1Cl)C(=O)NN | inactive

Structure (SMILES) | Potency
CC1(C)C(C=C(Cl)Cl)C1C(=O)Nc1ccc([N+](=O)[O-])cc1 (centres undefined) | inconclusive [inhibitor, single point]
C=CCNC1=C(Cl)C(=O)c2ccccc2C1=O | inconclusive [inhibitor, single point]
O=C(Nc1ccccc1)OC1CCC2CC1CCC2OC(=O)Nc1ccccc1 (centres undefined) | inconclusive [inhibitor, single point]
c1ccc(CNc2ccnc(-c3ccoc3)n2)cc1 | inconclusive [activator, partial curve]
COCCNS(=O)(=O)c1ccc(Cl)c(C(=O)NC2CCN(Cc3ccccc3)CC2)c1 | inactive
CC1=CC(C)(C)Nc2ccc(OC(=O)C(C)N3C(=O)c4ccccc4C3=O)cc21 (centres undefined) | active: 11.2 µM
CC(Oc1ccc(C(C)(C)C)cc1)c1ccnc2nc(/N=C/N(C)C)nn12 (centres undefined) | inactive
COc1ccc(N2CCC(CNC(=O)Nc3ccccc3)C2)cc1 (centres undefined) | inactive
CCOc1ccc(NC(=S)NN(C)C(=S)Nc2ccc(OCC)cc2)cc1 | inconclusive [inhibitor, single point]
CC(C)(C)c1ccc(CCC2OCC(CN3CCOCC3)O2)cc1 (centres undefined) | active: 4.47 µM
Cn1c2ccccc2c(=O)c2cc(C#Cc3ccccn3)ccc21 | inconclusive [inhibitor, single point]
CCOCCOC(=O)Cn1cnc2scc(-c3ccc(C)cc3)c2c1=O | inactive
CC(C)n1cc(/C=N/NC(=O)COc2cccc3cccnc23)c2ccccc21 | inconclusive [inhibitor, single point]
Cc1c(C(=O)OCc2ccccc2)[nH]c2c1C(=O)CC(c1ccco1)C2 (centres undefined) | inconclusive [inhibitor, single point]
Cc1ccc(NC(=O)c2cc(S(=O)(=O)N3CCOCC3)cs2)cc1 | inactive
O=C(COc1cc(Cl)c(Cl)cc1Cl)NC(=O)NC1CCCC1 | inconclusive [activator, partial curve]
O=C(NCc1nc2ccccc2[nH]1)c1cccs1 | inconclusive [activator, single point]
COc1ccc(OC)c(CCNC(=O)c2ccc3c(c2)N(Cc2ccccc2)CCS3)c1 | inconclusive [inhibitor, single point]
Cc1cc(C(=O)Nc2ccc(N3CCOCC3)c3nonc23)ccc1[N+](=O)[O-] | inconclusive [inhibitor, single point]
CCc1ccc(NC(=O)C2CCCN(S(=O)(=O)c3ccc4[nH]c(=O)ccc4c3)C2)cc1 (centres undefined) | inconclusive [inhibitor, single point]
CN(C(=O)Nc1ccc(Cl)cc1Cl)[C@H]1c2cc(Br)ccc2OC[C@H]1CO | inconclusive [inhibitor, single point]
Oc1ccccc1CN1CCN(C(c2ccccc2)c2ccccc2)CC1 | inactive
CCC1CN(C(=O)NCc2ccc(F)cc2)c2cc(C)ccc2O1 (centres undefined) | inactive
CC1CC(NC(=O)/C(C#N)=C/c2ccc[nH]2)CC(C)(C)C1 (centres undefined) | inconclusive [inhibitor, single point]
Cc1ccc(CN2CCC(n3nccc3NC(=O)CCCc3ccccc3)CC2)o1 | inactive

Structure (SMILES) | Potency
COc1ccc(-n2ncc3c(NC(C)C)ncnc32)cc1 | inconclusive [inhibitor, partial curve]
Cc1cc(NS(=O)(=O)c2ccc(NC(=O)COc3ccccc3C(C)C)cc2)no1 | inactive
CC(C)(C)c1cc(Cl)c(O)c(NC(=S)NC(=O)c2cccnc2)c1 | active: 0.891 µM
COC(=O)c1c(NC(=O)CCl)sc(C(=O)N2CCOCC2)c1C | active: 1.78 µM
O=C(COc1ccccc1[N+](=O)[O-])Nc1ccc(NC(=O)c2cc3ccccc3o2)cc1 | inconclusive [inhibitor, single point]
CC(C)NC(=O)COC(=O)/C=C/c1ccco1 | inconclusive [activator, single point]
Cc1cc2c([nH]c3ccccc32)c(C)n1 | inactive
Cc1ccc(NC(=O)CCC(=O)NNC(=O)NC2CCCCC2)c(C)c1 | inactive
O=S(=O)(/N=C/c1c(O)ccc2ccccc12)c1ccccc1 | inconclusive [inhibitor, partial curve]
Oc1c(Br)cc(Br)cc1C=NCc1ccc(F)cc1 | inconclusive [inhibitor, partial curve]
CN=C1c2c(-c3ccccc3)c3cc(OC)ccc3n2CCN1C | inconclusive [inhibitor, single point]
O=C1ON=C(c2ccc(Cl)cc2)/C1=C/c1ccc(O)cc1 | inconclusive [inhibitor, single point]
COC(=O)c1ccccc1S(=O)(=O)NNC(=O)Nc1ccccc1 | inconclusive [inhibitor, single point]
CCCCCOc1ccc(/C=C/C(=O)NCCc2nc3ccccc3[nH]2)cc1OC | inconclusive [inhibitor, single point]
Cc1ccc2nc(NC(=O)c3ccco3)sc2c1 | active: 7.08 µM
CC(C)c1ccc(/C=C2\SC(=O)N(CC(=O)NC3C=CS(=O)(=O)C3)C2=O)cc1 (centres undefined) | active: 4.47 µM
CCCCn1c(CCn2nc(C)c(Br)c2C)n[nH]c1=S | inconclusive [inhibitor, single point]
O=C(CCC(=O)N1CCOc2ccccc21)NCCc1ccccc1 | inconclusive [inhibitor, single point]
C=CCn1c(O)c(C2=c3ccccc3=NC2=O)sc1=Nc1ccc(O)cc1 | inconclusive [inhibitor, single point]
COc1ccc(N2C(=O)CSC23CCC(C(C)(C)C)CC3)cc1 (centres undefined) | inactive
COC(=O)Cc1ccc(NC(=S)NCC(C)C)cc1 | inconclusive [inhibitor, single point]
O=C(COc1ccccc1Cl)c1ccc2c(c1)CCCC2 | inconclusive [inhibitor, partial curve]
CC(C)(C)c1ccc(/C=C/C(=O)NC2=NCCS2)cc1 | active: 4.47 µM
Cc1nccc(-c2ccc3c(c2)OCO3)n1 | inconclusive [activator, single point]
